Data taken from ChEMBL document CHEMBL1961873, “Compounds: GSK PKIS; Assays: Nanosyn kinase panel” (2012).
For part of these data: Most of the strong results are listed elsewhere, so they are rarer here than in the full data. This is a selection; strong and weak results do not stand in their true shares.

Key:
[1] = target: T1, Serine/threonine-protein kinase D2 (Homo sapiens) (UniProt Q9BZL6); settings: at 1 µM;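 further: mean value of PRKD2 inhibition, from the GSK PKIS screening panel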
T1 sequence (whole entry): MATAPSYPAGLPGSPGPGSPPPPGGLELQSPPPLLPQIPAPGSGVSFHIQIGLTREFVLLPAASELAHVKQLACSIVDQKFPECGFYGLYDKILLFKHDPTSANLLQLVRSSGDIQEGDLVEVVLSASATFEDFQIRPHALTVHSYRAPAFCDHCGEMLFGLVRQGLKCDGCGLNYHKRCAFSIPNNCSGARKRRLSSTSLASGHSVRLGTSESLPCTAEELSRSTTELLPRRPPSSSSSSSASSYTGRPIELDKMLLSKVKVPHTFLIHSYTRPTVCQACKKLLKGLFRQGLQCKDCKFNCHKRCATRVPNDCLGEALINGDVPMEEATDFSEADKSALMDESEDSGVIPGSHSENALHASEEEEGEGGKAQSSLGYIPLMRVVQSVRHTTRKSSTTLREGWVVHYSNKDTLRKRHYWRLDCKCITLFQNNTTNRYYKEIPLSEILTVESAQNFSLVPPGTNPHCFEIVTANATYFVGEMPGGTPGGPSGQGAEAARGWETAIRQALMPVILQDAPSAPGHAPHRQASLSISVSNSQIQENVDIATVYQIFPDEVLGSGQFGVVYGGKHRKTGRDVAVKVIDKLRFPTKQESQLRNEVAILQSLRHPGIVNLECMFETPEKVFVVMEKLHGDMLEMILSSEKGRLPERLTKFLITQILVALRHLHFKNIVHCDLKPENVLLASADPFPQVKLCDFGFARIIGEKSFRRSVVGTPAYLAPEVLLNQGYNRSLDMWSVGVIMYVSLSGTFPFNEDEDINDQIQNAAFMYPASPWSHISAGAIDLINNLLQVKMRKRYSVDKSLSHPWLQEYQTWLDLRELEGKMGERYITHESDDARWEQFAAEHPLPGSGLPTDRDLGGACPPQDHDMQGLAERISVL

[2] = target: T2, Serine/threonine-protein kinase D3 (Homo sapiens) (UniProt O94806); settings: at 0.1 µM
T2 sequence (whole entry): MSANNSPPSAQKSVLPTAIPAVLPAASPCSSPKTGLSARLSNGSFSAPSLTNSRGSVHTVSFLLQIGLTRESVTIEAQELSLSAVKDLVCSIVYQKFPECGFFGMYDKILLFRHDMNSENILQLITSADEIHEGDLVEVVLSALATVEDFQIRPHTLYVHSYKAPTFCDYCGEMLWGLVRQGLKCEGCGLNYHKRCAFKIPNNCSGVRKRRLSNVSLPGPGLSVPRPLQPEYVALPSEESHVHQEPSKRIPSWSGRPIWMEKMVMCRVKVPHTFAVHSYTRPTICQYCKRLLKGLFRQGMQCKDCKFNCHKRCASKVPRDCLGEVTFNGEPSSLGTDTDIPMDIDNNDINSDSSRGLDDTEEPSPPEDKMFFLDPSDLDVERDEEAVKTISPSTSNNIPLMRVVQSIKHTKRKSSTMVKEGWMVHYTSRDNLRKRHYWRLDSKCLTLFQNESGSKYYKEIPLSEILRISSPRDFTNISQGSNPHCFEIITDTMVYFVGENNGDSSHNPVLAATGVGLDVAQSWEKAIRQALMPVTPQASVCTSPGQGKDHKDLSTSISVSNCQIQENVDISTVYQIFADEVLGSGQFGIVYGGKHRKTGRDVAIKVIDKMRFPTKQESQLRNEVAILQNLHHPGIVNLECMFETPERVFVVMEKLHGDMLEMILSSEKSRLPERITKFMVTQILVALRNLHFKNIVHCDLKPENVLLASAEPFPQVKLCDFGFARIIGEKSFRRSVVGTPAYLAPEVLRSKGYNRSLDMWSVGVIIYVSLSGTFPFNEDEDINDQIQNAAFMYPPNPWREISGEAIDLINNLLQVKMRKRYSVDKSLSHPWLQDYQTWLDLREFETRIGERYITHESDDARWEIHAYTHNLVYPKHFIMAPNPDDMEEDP

[3] = target: T2, Serine/threonine-protein kinase D3 (Homo sapiens); settings: at 1 µM
[4] = target: T3, cGMP-dependent protein kinase 1 (Homo sapiens) (UniProt Q13976); settings: at 0.1 µM
T3 sequence (whole entry): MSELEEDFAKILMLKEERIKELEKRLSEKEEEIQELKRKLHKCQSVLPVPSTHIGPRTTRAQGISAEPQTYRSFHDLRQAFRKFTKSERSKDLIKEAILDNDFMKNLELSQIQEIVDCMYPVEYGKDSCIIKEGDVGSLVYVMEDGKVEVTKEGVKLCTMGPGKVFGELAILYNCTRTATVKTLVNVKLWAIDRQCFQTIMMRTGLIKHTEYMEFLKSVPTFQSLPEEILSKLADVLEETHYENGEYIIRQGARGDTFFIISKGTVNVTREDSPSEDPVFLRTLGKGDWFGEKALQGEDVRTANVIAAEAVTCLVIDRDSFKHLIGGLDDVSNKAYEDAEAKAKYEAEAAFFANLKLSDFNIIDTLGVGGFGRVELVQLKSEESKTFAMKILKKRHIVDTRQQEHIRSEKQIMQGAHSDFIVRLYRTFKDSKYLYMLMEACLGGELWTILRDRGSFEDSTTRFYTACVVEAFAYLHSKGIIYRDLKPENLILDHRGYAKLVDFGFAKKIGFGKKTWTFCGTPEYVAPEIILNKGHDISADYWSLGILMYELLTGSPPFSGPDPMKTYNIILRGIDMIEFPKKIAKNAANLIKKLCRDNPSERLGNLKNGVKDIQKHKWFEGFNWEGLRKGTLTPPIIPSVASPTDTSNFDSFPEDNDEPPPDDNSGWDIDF

[5] = target: T3, cGMP-dependent protein kinase 1 (Homo sapiens); settings: at 1 µM
[6] = target: T4, cGMP-dependent protein kinase 2 (Homo sapiens) (UniProt Q13237); settings: at 0.1 µM
T4 sequence (whole entry): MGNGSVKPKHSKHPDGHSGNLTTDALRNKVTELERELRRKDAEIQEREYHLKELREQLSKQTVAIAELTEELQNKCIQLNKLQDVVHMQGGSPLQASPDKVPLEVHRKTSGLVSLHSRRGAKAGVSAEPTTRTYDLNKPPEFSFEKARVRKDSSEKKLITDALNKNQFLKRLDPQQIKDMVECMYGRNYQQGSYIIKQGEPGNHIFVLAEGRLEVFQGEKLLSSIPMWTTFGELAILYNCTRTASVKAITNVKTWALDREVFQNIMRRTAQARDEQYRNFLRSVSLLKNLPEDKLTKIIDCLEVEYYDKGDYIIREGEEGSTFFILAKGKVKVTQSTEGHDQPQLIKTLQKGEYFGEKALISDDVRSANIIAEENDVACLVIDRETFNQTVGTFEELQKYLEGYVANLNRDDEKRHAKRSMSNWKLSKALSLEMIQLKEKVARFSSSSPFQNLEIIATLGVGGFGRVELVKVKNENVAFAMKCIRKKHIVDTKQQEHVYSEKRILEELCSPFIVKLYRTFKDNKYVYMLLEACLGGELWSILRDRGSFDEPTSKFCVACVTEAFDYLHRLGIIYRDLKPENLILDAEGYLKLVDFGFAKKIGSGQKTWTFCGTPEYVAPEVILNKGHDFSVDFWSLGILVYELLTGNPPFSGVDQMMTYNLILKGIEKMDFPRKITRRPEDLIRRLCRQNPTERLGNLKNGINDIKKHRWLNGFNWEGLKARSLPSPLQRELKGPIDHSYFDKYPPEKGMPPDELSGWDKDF

[7] = target: T4, cGMP-dependent protein kinase 2 (Homo sapiens); settings: at 1 µM
[8] = target: T5, cAMP-dependent protein kinase catalytic subunit PRKX (Homo sapiens) (UniProt P51817); settings: at 0.1 µM
T5 sequence (whole entry): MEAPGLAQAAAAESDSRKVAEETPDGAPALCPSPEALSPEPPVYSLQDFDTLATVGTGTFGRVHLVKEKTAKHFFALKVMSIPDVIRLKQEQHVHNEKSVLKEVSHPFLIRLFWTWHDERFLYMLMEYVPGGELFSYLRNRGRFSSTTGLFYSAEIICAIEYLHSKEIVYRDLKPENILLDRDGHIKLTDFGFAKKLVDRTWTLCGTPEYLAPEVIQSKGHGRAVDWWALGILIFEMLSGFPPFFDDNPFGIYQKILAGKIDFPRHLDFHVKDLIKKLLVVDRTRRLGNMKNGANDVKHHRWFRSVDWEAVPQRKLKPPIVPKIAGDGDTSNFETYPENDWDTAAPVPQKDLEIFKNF

[9] = target: T5, cAMP-dependent protein kinase catalytic subunit PRKX (Homo sapiens); settings: at 1 µM
[10] = target: Rho-associated protein kinase 1 (Homo sapiens) (UniProt Q13464); settings: at 0.1 µM;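 further: values are mean percent inhibition of ROCK1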
Sequence of UniProt Q13464 (Q13464 whole entry, looked up): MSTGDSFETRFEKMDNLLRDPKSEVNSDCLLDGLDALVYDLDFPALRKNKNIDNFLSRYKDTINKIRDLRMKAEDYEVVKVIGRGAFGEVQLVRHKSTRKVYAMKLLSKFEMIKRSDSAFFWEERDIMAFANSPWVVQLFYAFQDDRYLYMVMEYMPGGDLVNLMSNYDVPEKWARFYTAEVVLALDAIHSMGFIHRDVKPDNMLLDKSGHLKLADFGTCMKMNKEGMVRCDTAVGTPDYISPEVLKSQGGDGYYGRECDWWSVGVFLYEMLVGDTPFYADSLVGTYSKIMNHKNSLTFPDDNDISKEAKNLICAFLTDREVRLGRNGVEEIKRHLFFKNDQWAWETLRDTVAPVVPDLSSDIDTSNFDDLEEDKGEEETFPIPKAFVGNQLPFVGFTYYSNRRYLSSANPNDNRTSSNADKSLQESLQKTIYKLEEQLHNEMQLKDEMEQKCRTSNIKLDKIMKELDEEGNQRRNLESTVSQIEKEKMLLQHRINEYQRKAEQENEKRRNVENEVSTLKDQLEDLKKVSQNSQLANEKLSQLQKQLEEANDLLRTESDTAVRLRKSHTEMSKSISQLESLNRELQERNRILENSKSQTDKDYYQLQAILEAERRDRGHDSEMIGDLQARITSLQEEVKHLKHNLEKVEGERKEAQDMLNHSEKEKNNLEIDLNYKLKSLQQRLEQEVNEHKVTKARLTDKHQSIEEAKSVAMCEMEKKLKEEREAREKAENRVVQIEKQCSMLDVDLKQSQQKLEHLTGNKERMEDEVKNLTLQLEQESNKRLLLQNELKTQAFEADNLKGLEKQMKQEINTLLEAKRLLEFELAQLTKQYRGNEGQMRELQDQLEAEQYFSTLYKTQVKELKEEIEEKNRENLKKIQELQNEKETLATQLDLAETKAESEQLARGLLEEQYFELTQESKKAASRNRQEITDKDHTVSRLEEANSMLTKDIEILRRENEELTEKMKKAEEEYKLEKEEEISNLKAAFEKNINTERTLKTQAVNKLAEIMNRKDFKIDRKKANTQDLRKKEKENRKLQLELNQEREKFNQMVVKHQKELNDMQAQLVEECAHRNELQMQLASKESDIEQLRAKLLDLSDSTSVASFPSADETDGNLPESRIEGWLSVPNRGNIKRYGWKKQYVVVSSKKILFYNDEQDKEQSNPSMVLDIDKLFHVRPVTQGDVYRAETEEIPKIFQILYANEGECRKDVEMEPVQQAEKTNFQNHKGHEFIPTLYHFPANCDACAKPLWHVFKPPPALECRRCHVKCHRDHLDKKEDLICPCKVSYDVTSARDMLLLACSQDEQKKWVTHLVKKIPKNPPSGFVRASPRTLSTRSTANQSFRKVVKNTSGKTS

| SMILES | inhibition [1] [%] | inhibition [2] [%] | inhibition [3] [%] | inhibition [4] [%] | inhibition [5] [%] | inhibition [6] [%] | inhibition [7] [%] | inhibition [8] [%] | inhibition [9] [%] | inhibition [10] [%] |
| --- | --- | --- | --- | --- | --- | --- | --- | --- | --- | --- |
| COc1ccccc1Oc1nccc(-c2c(-c3ccc(F)cc3)ncn2C2CCNCC2)n1 | 10.8 | 5.31 | 12.1 | 3.13 | 2.97 | 2.29 | 4.69 | 2.58 | 2.39 | 2.78 |
| O=C(O)c1ccc(Oc2nccc(-c3c(-c4ccc(F)cc4)ncn3C3CCNCC3)n2)cc1 | 3.6 | 4.91 | 5.35 | 5.36 | 6.26 | 3.56 | 6.47 | 3.24 | 3.39 | 2.05 |
| O=C1NC(=O)C(c2cccc([N+](=O)[O-])c2)=C1Nc1cc(Cl)c(O)c(Cl)c1 | 2.21 | 1.6 | 3.53 | 2.61 | 1.99 | 2.1 | 3.19 | 3.28 | 2.86 | 0.34 |
| CS(=O)(=O)c1ccc(Oc2nccc(-c3c(-c4ccc(F)cc4)ncn3C3CCNCC3)n2)cc1 | 2.39 | 4.58 | 6.17 | 2.78 | 3.05 | 2.81 | 2.75 | 1.52 | 2.83 | 2.48 |
| NC(=O)CCc1ccccc1Oc1nccc(-c2c(-c3ccc(F)cc3)ncn2C2CCNCC2)n1 | 0.47 | 0.26 | -0.78 | -0.14 | 0.21 | 0.15 | 0.97 | 0.5 | 0.49 | 0.32 |
| CC(C)(C)c1ccc(Oc2nccc(-c3c(-c4ccc(F)cc4)ncn3C3CCNCC3)n2)cc1 | 8.82 | 4.02 | 7.89 | 2.83 | 1.94 | 2.15 | 3.52 | 1.07 | 2.76 | 2.14 |
| Fc1ccc(-c2ncn(C3CCNCC3)c2-c2ccnc(Oc3ccc(Cl)cc3)n2)cc1 | 1.15 | 0.31 | 1.49 | 1.06 |  | 0.7 | 1.44 | 0.98 | 1.04 | 1.45 |
| Fc1ccc(-c2ncn(C3CCNCC3)c2-c2ccnc(Oc3cccc(C(F)(F)F)c3)n2)cc1 | 4.6 | 4.8 | 5.25 | 4.91 | 3.98 | 3.5 | 3.81 | 2.8 | 3.28 | 2.56 |
| COc1ccccc1C1=C(Nc2ccccc2)C(=O)NC1=O | 3.26 | 2.78 | 3.43 | 2.15 | 3.55 | 1.63 | 5.24 | 2.27 | 2.75 | -0.62 |
| O=C1NC(=O)C(c2ccccc2)=C1Nc1ccccc1 | 6.11 | 5.73 | 6.24 | 3.1 | 7.14 | 3.35 | 5.15 | 3.03 | 4.28 | 0.28 |
| O=C1NC(=O)C(c2ccccc2Cl)=C1Nc1cc(Cl)c(O)c(Cl)c1 | 1.74 | 3.47 | 2.15 | 1.42 | 2.3 | -0.39 | 2.34 | 1.23 | 3.25 | 0.56 |
| Fc1ccc(Oc2nccc(-c3c(-c4ccc(F)cc4)ncn3C3CCNCC3)n2)cc1 | -2.14 | 1.07 | 0 | 4.51 | 6.32 | 3.55 | 5.41 | 3.35 | 5 | 1.58 |
| Fc1ccc(-c2ncn(C3CCNCC3)c2-c2ccnc(Oc3cccc(F)c3)n2)cc1 | 5.29 | 4.52 | 6.17 | 3.66 | 7.09 | 3.17 | 4.69 |  | 2.08 | 3.18 |
| Cc1cccc(Oc2nccc(-c3c(-c4ccc(F)cc4)ncn3C3CCNCC3)n2)c1C | 14.2 | 5.42 | 15.4 | 2.47 | 1.81 | 0.96 | 1.79 | 1.88 | 2.55 | 1.8 |
